Results reported in paper PMC6919601, “Identification of Plasmodium dipeptidyl aminopeptidase allosteric inhibitors by high throughput screening” (PLoS ONE, 2019).
Like-named read-outs stand apart in the source and are kept apart here.

How the values were obtained:
[1] = target: T1, DPAP1 (Plasmodium falciparum, UniProt Q8IIJ9); assay: biochemical; format: biochemical; conditions: for inhibition at 10 µM: read-out: DPAP1 % Inhibition @ 10 uM; for DPAP Primary hit (Hit = 1): 10 μM HTS, 0 not defined
T1 sequence (Q8IIJ9 370-599 limits assumed): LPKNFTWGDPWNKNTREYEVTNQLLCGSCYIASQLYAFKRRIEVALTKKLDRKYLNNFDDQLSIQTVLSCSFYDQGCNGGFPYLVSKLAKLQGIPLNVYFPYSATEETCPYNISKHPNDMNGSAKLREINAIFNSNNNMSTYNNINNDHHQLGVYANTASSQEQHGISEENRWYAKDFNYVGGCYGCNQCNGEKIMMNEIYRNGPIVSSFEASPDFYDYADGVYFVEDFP
T1 sequence (Q8IIJ9 28-209 limits assumed): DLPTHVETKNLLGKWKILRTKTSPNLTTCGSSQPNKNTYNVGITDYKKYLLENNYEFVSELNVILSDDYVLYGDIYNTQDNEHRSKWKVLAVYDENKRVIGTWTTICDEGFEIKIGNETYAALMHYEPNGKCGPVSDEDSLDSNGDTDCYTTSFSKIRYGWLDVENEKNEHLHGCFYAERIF
T1 sequence (Q8IIJ9 600-700 limits assumed): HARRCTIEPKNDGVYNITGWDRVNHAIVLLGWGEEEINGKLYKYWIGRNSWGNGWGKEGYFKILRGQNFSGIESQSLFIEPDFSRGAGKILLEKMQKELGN

[2] = target: T1, DPAP1; conditions: false positive, i.e. no inhibition at 100 mM (footnote b); 10 μM (PR)2Rho, continuous assay
[3] = system: WI-38 primary lung fibroblast; conditions: 10 uM; ref SMDC Assay #440; cited from earlier work
[4] = system: WI-38 primary lung fibroblast; assay: cells; set-up: Cell toxicity screen in WI-38 primary lung fibroblasts at 10 uM (SMDC assay 440); conditions: Homo sapiens, sheet All cpds;, SMDC cell toxicity assay 440
[5] = target: T1, DPAP1; assay: biochemical; format: biochemical; conditions: for Emax: 0.5 h, VR-ACC at Km, > = inhibition at the highest concentration, no baseline reached, read-out: Maximum % Inhibition DPAP1
[6] = system: P. falciparum; assay: Standard 72 h parasite replication assay; format: cell-based, Plasmodium falciparum; conditions: Plasmodium falciparum, 72h replication assay; for inhibition at 100 µM: read-out: Pf % Inh @ 100 μM; for EC50: 3 biological replicates, read-out: Pf EC50
[7] = target: T1, DPAP1; assay: biochemical; format: biochemical; conditions: for DPAP1 inhibition Model: COM competitive, UNC uncompetitive, P-M partial mixed, P-C partial competitive, P-NC partial non-competitive, P-U partial uncompetitive; for DPAP1 α: factor by which Km is modified at saturating inhibitor; for DPAP1 β: factor by which kcat (Vmax) is modified at saturating inhibitor; for Ki: global fit to MOI model, standard error of fit in parentheses
[8] = target: T2, FP3 (Plasmodium falciparum, UniProt Q8IIL0); assay: biochemical; format: biochemical; conditions: for FP3 inhibition Model: COM competitive, UNC uncompetitive, P-M partial mixed, P-C partial competitive, P-NC partial non-competitive, P-U partial uncompetitive; for Ki: global fit to MOI model, standard error of fit in parentheses, read-out: FP3 Ki; for FP3 α: factor by which Km is modified at saturating inhibitor; for FP3 β: factor by which kcat (Vmax) is modified at saturating inhibitor
T2 sequence (Q8IIL0 243-492): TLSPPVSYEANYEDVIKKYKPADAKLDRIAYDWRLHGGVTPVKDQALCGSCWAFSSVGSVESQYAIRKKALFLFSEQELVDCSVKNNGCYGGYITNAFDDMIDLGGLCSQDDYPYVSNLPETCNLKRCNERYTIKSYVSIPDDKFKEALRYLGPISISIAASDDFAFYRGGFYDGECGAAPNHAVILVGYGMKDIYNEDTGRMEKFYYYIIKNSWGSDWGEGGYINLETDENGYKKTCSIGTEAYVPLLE

[9] = target: DPAP3 (Plasmodium falciparum, UniProt Q8I1Y2); assay: biochemical; conditions: 0.5 h, read-out: Maximum % Inhibition DPAP3
Chain of DPAP3 (Q8I1Y2 entry or part of it): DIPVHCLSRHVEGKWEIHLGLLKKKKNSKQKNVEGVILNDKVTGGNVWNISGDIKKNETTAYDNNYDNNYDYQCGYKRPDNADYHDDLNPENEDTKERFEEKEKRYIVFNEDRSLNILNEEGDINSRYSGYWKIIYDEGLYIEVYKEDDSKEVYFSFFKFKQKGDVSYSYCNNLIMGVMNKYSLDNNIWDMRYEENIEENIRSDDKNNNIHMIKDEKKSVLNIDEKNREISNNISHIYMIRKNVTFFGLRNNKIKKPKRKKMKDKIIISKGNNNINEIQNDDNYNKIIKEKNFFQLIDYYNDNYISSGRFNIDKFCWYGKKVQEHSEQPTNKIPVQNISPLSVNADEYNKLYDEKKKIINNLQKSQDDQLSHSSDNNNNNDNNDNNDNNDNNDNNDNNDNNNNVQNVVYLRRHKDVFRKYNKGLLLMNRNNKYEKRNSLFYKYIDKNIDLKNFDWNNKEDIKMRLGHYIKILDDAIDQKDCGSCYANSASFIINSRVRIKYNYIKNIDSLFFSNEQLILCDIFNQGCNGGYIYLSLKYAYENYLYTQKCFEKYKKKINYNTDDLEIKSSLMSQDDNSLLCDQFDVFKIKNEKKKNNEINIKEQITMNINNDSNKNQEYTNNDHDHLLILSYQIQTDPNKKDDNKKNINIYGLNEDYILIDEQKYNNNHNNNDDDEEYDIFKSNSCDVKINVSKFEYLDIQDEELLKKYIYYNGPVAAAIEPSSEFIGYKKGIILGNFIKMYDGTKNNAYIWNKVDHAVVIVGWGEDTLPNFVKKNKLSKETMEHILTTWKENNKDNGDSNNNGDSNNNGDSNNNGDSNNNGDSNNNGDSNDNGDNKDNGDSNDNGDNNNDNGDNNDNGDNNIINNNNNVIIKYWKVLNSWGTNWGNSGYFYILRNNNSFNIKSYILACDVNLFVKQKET

[10] = target: T2, FP3; assay: biochemical; conditions: for Emax: 0.5 h, read-out: Maximum % Inhibition FP3, substrate at Km
[11] = system: human foreskin fibroblast cells; assay: Cytotoxicity assay, CellTiter-Glo; conditions: 24h treatment, 4 biological replicates
[12] = target: bovine CatC (Bos taurus, UniProt Q3ZCJ8); assay: Dose response inhibition assay, CatC with GR-AMC substrate; conditions: for Emax: 0.5 h, read-out: Maximum % Inhibition CatC, substrate at Km
Chain of bovine CatC (Q3ZCJ8 231-394 limits assumed): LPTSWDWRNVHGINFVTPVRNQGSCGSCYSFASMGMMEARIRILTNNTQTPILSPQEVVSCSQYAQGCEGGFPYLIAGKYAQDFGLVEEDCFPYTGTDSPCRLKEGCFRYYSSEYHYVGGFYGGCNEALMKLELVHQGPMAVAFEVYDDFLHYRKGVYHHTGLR
Chain of bovine CatC (Q3ZCJ8 25-134 limits assumed): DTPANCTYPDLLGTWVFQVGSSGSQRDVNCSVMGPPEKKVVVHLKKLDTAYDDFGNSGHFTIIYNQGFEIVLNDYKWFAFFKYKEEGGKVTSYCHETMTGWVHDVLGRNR
Chain of bovine CatC (Q3ZCJ8 395-463 limits assumed): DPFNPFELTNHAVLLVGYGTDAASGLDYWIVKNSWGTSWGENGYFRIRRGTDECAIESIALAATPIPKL

[13] = target: CatC (Bos taurus, UniProt Q3ZCJ8); assay: Mechanism of inhibition studies, CatC; format: biochemical, bovine; conditions: for CatC inhibition Model: COM competitive, UNC uncompetitive, P-M partial mixed, P-C partial competitive, P-NC partial non-competitive, P-U partial uncompetitive; for CatC α: factor by which Km is modified at saturating inhibitor; for CatC β: factor by which kcat (Vmax) is modified at saturating inhibitor; for Ki: global fit to MOI model, standard error of fit in parentheses, read-out: CatC Ki
Chain of CatC (Q3ZCJ8 231-394 limits assumed): as the sequence (Q3ZCJ8 231-394 limits assumed) above
Chain of CatC (Q3ZCJ8 25-134 limits assumed): as the sequence (Q3ZCJ8 25-134 limits assumed) above
Chain of CatC (Q3ZCJ8 395-463 limits assumed): as the sequence (Q3ZCJ8 395-463 limits assumed) above

[14] = target: T2, FP3; conditions: ratio of IC50 values
[15] = 10 μM compound, parasite lysates, (PR)2Rho, 30 min end-point

SMILES | inhibition at 10 µM [1, 15] [%] | DPAP1 inhibition on re-test of purchased compound [2] | Cell Toxicity WI-38 primary lung fibroblast %Inhibition @ 10 uM [3] [%] | inhibition at 10 µM [4] [%] | IC50 [5] [nM] | Emax [5] [%] | inhibition at 100 µM [6] [%] | EC50 [6] [µM] | DPAP1 inhibition Model [7] | DPAP1 β [7] | Ki [7] [nM] | FP3 inhibition Model [8] | Ki [8] [µM] | Emax [9] [%] | IC50 [10] [nM] | Emax [10] [%] | Tox EC50 / Cytox EC50 [11] | IC50 [12] [nM] | Emax [12] [%] | DPAP Primary hit (Hit = 1) [1] | other results
CC(=O)Nc1ccc(Oc2ccc(NC(C)=O)c(NC(C)=O)c2)cc1 [SMDC103191, CC(=O)Nc1ccc(Oc2ccc(NC(=O)C)c(NC(=O)C)c2)cc1] | 71 | False Positive | 13 | 13.3 | – | – | – | – | – | – | – | – | – | – | – | – | – | – | – | – | –
COc1cc(/C=C2/NC(=O)N(Cc3ccccc3F)C2=O)cc(Br)c1O [SMDC103222, COc1cc(\C=C/2\NC(=O)N(Cc3ccccc3F)C2=O)cc(Br)c1O] | 63 | – | 14 | 14.2 | 1700 | 50 | 75 | 23 | P-C | = 1 | 1100 | uncompetitive | 9.1 | > 75 | 15900 | 100 | 400 (120) μM | 1400 | 90 | – | DPAP1 α [7]: 2.12 (0.09); FP3 inhibition Model ([8]; listed as 103222): UNC
COc1ccc(S(=O)(=O)N2CCSC2c2ccccc2Cl)cc1 (stereo not drawn) [SMDC112387, COc1ccc(cc1)S(=O)(=O)N2CCSC2c3ccccc3Cl] | – | False Positive | 10 | 9.9 | – | – | – | – | – | – | – | – | – | – | – | – | – | – | – | – | inhibition at 10 µM [1]: 69%
Cc1cc(Oc2nc3ccccn3c(=O)c2/C=C(\C#N)c2nc3ccccc3[nH]2)ccc1Cl [SMDC158196, Cc1cc(OC2=C(\C=C(/C#N)\c3nc4ccccc4[nH]3)C(=O)N5C=CC=CC5=N2)ccc1Cl] | 92 | False Positive | -2 | – | – | – | – | – | – | – | – | – | – | – | – | – | – | – | – | – | –
Cc1cccc(-n2c(C)cc(/C=C3\C(=N)N4N=C(S(C)(=O)=O)SC4=NC3=O)c2C)c1 [SMDC168863, Cc1cccc(c1)n2c(C)cc(\C=C/3\C(=O)N=C4SC(=NN4C3=N)S(=O)(=O)C)c2C] | 53 | False Positive, PAIN | 5 | 4.9 | – | – | – | – | – | – | – | – | – | – | – | – | – | – | – | – | –
N#CC1=C2SCN(Cc3ccco3)CN2C(=O)CC1c1cccc(OCc2ccccc2)c1 (stereo not drawn) [SMDC170136, O=C1CC(C(=C2SCN(Cc3occc3)CN12)C#N)c4cccc(OCc5ccccc5)c4] | 67 | – | 18 | – | 1300 | 83 | 79 | 14 | P-C | = 1 | 1400 | P-U | 12 | 10 | 100 | 99 | 180 (20) μM | 70 | 65 | 1 | DPAP1 α [7]: 2.3 (0.1); CatC inhibition Model [13]: P-NC; CatC α [13]: = 1; CatC β [13]: 0.56 (0.02); Ki [13]: 800 nM; FP3 α [8]: 0.07 (0.02); FP3 β [8]: 0.07 (0.02)
N#CC1=C2SCN(C3CCCCC3)CN2C(=O)CC1c1cccc2ccccc12 (stereo not drawn) [SMDC170156, O=C1CC(C(=C2SCN(CN12)C3CCCCC3)C#N)c4cccc5ccccc45] | 54 | – | 8 | – | 1100 | 73 | 66 | 31 | – | – | – | – | – | 19 | 610 | 95 | 240 (50) μM | 620 | 65 | 1 | CatC inhibition Model [13]: P-NC; CatC α [13]: = 1; CatC β [13]: 0.52 (0.04); Ki [13]: 3700 nM
Cc1ccsc1CCN1CSC2=C(C#N)C(c3ccc(Cl)cc3)CC(=O)N2C1 (stereo not drawn) [SMDC178801, Cc1ccsc1CCN2CSC3=C(C#N)C(CC(=O)N3C2)c4ccc(Cl)cc4] | 52 | – | -6 | – | 900 | 75 | 78 | 31 | P-C | = 1 | 360 | P-M | 6.6 | 20 | 69 | 93 | 52 (9) μM | 110 | 48 | 1 | DPAP1 α ([7]; listed as 178801): 3.2 (0.2); FP3 α [8]: < 1; FP3 α ([8]; listed as 178801): 0.22 (0.09); FP3 β [8]: 0.09 (0.03); Selectivity towards FP3 compared to FP2 [14]: more than 50 fold
CCOc1ccc(C2CC(=O)N3CN(C(C)c4ccccc4)CSC3=C2C#N)cc1 (stereo not drawn) [SMDC178822, CCOc1ccc(cc1)C2CC(=O)N3CN(CSC3=C2C#N)C(C)c4ccccc4] | 53 | – | 0 | – | 650 | 82 | 78 | 28 | – | – | – | – | – | 16 | 80 | 99 | 100 (25) μM | 120 | 48 | 1 | Selectivity towards FP3 compared to FP2 [14]: more than 50 fold
